These results are taken from PubChem BioAssay AID1240 (Sanford-Burnham Center for Chemical Genomics, 2008).

Molecules are shown by their SMILES. The campaign covered roughly 50,000 compounds. About 800 (1.6%) showed an effect of 50% or more. This is one part of the list.

This assay deals with Bcl-2-like protein 10 (Homo sapiens) (UniProt Q9HD36). In words: TR3 peptide-Bcl-B binding displacers, biochemical primary FP assay, phenotype converters (AID 1240).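 Further: 0% = Bcl-B with tracer peptide and DMSO and 100% = tracer peptide lacking Bcl-B.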 The settings on record: GST-Bcl-B / FITC-TR3 peptide fluorescence polarization; stronger effect = higher value; compound at 3.75 mg/L.
Sequence of UniProt Q9HD36 (Q9HD36 whole entry, looked up): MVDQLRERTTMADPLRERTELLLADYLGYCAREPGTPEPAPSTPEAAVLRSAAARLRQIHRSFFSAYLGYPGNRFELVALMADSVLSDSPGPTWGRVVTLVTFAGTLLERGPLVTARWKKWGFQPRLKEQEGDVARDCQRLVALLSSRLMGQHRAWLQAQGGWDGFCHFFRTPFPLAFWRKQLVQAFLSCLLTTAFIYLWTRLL
On to `COc1ccc(/C=C2\C(=O)NC(=O)N(c3cc(C)cc(C)c3)C2=O)c(OC)c1`, for which the displacement stood at 9.5%.
As for `O=c1c2c3c(sc2nc(SCc2ccc([N+](=O)[O-])cc2)n1-c1ccccc1)CCCC3`, the displacement is -6.8%.
For `C/C(=N\NC(=O)c1cc(C(C)(C)C)[nH]n1)c1ccc2ccccc2c1`, the displacement was -9.4%.
Consider `CCCCOc1ccc(C(=O)O/N=C2/CCc3cc(OC)ccc32)cc1`, for which the displacement came to 2%.
Turning to `NC(=O)c1ccc(NC(=O)c2sc3ccccc3c2Cl)cc1`, the displacement stood at 5.2%.
On to `O=C(Nc1ccc2nn(-c3ccc(F)cc3)nc2c1)c1ccc(Br)o1`, for which the displacement was 49.5%.
Take `COc1ccc(-c2cc(C(F)(F)F)n3nc(C(=O)Nc4ccccc4C(F)(F)F)cc3n2)cc1`: the displacement is 6%.
To `Cc1c(C(=O)O)cccc1-n1c(C)ccc1C` belongs 85.4%; to `Cc1cc(C)cc(OC(=O)C(C)N2C(=O)c3ccccc3C2=O)c1` (stereo unspecified), 1.9%.
Turning to `O=C1c2ccc(C(c3ccc4c(c3)C(=O)N(c3ccccc3)C4=O)(C(F)(F)F)C(F)(F)F)cc2C(=O)N1c1ccccc1`, the displacement is 3.3%.
Take `CCOC(=O)c1ccc(NC(=O)/C=C/c2ccc(Cl)cc2)cc1`: the displacement amounted to 16.8%.
For the compound `CCCOc1ccc(/C=C2\C(=O)NN(c3ccccc3)C2=O)cc1`, the displacement was 14.7%.
The same measure for `COc1ccc(NC(=O)/C(=C/c2cccs2)NC(=O)c2ccc(C(C)(C)C)cc2)cc1`: -8.7%; for `CCn1c(SCC(=O)NN)nc2ccccc21`: -15.2%.
Take `COc1ccc(OC)c(NC(=O)c2cccc(C)c2)c1`: the displacement is 7.8%.
To `COC(=O)CCC(=O)NCc1ccccc1` belongs 7.9%; to `CCc1cc(C(=O)N/N=C/c2ccc(OC)c(O)c2)c2ccccc2n1`, -1.3%.
In the case of `COc1ccc2oc(=O)c(-c3ccc([N+](=O)[O-])cc3)cc2c1`, the displacement is -5.7%.
`O=C(NC1CCCCC1)c1cccc(C(F)(F)F)c1`: the displacement is -3.7%.
The same measure for `COc1cccc(C(=O)N2CCN(C3CCCCC3OC)CC2)c1` (stereo unspecified): -16.2%; for `CCOC(=O)NC(Nc1cccc(F)c1)(C(F)(F)F)C(F)(F)F`: -9.3%; for `CCOc1cc(/C=C2\C(=O)N(c3ccc(S(N)(=O)=O)cc3)N=C2C)cc(Br)c1O`: -25.9%.
With `CCOc1ccc(C2N(Cc3ccccc3)CCN2Cc2ccccc2)cc1`, the displacement is -8.4%.
Consider `O=C(Nc1ccc(F)c([N+](=O)[O-])c1)c1ccc(-c2ccc(Cl)cc2Cl)o1`, for which the displacement amounted to 13.5%.
Take `CC1(C)c2ccccc2N(CCO)C12C=Cc1cc(Br)ccc1O2` (stereo unspecified): the displacement came out at 7.8%.
As for `Cc1ccc(NC(=O)c2ccccc2C(F)(F)F)c(C)c1`, the displacement came to 11.3%.
On to `CCOC(=O)C1=C(O)/C(=C/c2ccc(Cl)cc2Cl)SC1=Nc1ccccc1`, for which the displacement is -11.4%.
Regarding `CCc1nnc(NC(=O)CCc2ccc(OC)cc2)s1`, the displacement is -4.4%.
Regarding `COCCOC(=O)c1ccc(NC(=O)c2ccc(OC)cc2)cc1`, the displacement is -3.8%.
With `CC(=O)Oc1ccc(/C=N/NS(=O)(=O)c2ccccc2)cc1`, the displacement came out at 2.9%.
To `C/C(=N\Nc1nc(C)cc(-c2ccccc2)n1)c1ccccc1` belongs -9%; to `CCOc1cc(C=O)ccc1OCc1ccccc1F`, 11.7%; to `Cc1cc(C(F)(F)F)nn1CC(=O)Nc1sc2c(c1C#N)CCCC2`, -4.9%.
The same measure for `CC(=O)/C=C(\C)N1N=C(c2ccccc2)CC1c1ccccc1` (stereo unspecified): -19.9%; for `COC(=O)c1sc(NC(=O)c2cccc(F)c2)c(C(=O)OC)c1C`: 5.1%; for `Cc1nc(-c2ccc(Br)cc2)[nH]c(=O)c1C`: 7.4%.
For `C=CCNCCCCOc1ccc(Br)cc1`, the displacement was found to be 8.5%.
In the case of `COc1ccc(-c2cc(-c3c(O)c(OC)c4occc4c3OC)[nH]n2)cc1OC`, the displacement is 13.6%.
In the case of `O=C(O)COc1ccccc1/C=N/NC(=O)/C(=C\c1ccc2c(c1)OCO2)NC(=O)c1ccccc1`, the displacement was 3.6%.
As to `C/C(=N\OC/C(O)=C(\C#N)c1nc2ccccc2[nH]1)c1ccc(Br)cc1`, the displacement stood at 46.6%.
In the case of `CS(=O)(=O)N1CCN(C(=O)c2cccs2)CC1`, the displacement is -10.7%.
As to `Cc1cc(O)c(C(=O)c2ccccc2C(=O)O)cc1C`, the displacement was 2.2%.
On to `Cc1occc1C(=O)Nc1nc(-c2ccccc2)c(C)s1`, for which the displacement was -16%.
Regarding `COc1ccc(N=CC2=C(O)CC(c3ccccc3)CC2=O)cc1OC` (stereo unspecified), the displacement is -6.8%.
`CC(C)Cc1cc(-c2ccc(Cl)cc2)c(C#N)c(N)n1`: the displacement was 3%.
With `COc1cccc(C(O)c2nc3ccccc3n2C)c1` (stereo unspecified), the displacement came to 0.2%.
Take `CCOc1ccccc1NC(=O)C(N)=O`: the displacement amounted to 13.6%.
As to `O=C(O)c1ccccc1SC1CC(=O)N(c2cccc(Cl)c2)C1=O` (stereo unspecified), the displacement is -1%.
The same measure for `O=C(Nc1ccc(F)cc1)C1COc2ccccc2O1` (stereo unspecified): -10%; for `CCOc1ccc(/C=N/NC(=O)C(=O)N(CC)CC)cc1`: 0.3%; for `CCN(C(=O)Cc1ccc(Cl)cc1)c1ccccc1C`: 1.4%.
Turning to `CCOC(=O)c1cc(-c2ccco2)nc2ccc(Br)cc12`, the displacement was 33.4%.
To `CS(=O)(=O)N(CC(=O)Nc1cccc2ccccc12)c1ccc(Cl)cc1` belongs 21.2%; to `O=C(Cc1ccc(Br)cc1)NCc1ccccc1`, 4.5%.
For `COc1ccc(NC(=O)C2C3CCC(C3)C2C(=O)O)cc1OC` (stereo unspecified), the displacement was -1.3%.
The same measure for `O=C1c2ccc([N+](=O)[O-])cc2C(=O)N1c1nccs1`: 1.6%; for `O=C(CSc1ncccn1)NN=C1CCCC1`: 5.3%.
`COc1ccc(S(=O)(=O)Nc2cc3c(C(C)=O)c(C)oc3c3ccccc23)cc1`: the displacement was -1.9%.
With `COc1ccccc1C(=O)Nc1ccc2oc(-c3ccncc3)nc2c1`, the displacement came out at 135%.
The same measure for `CCOC(=O)c1c(C)nc(C)c(C(=O)OCC)c1-c1ccc(Br)cc1`: 3.9%.
The same measure for `COc1ccccc1CNC(=O)/C=C/c1ccc([N+](=O)[O-])cc1`: 9.6%.
Take `CCOC(=O)C(=CNc1ccc(F)c(F)c1F)C(=O)OCC`: the displacement amounted to 3.1%.
For `Cc1ccc(/C(O)=C2\C(=O)C(=O)N(c3ccc(O)cc3)C2c2ccccc2)cc1` (stereo unspecified), the displacement was 14.9%.
Consider `Cc1ccc(NS(=O)(=O)c2ccc3ccccc3c2)cc1Cl`, for which the displacement stood at 12.3%.
The same measure for `COc1cc(C2C(C(=O)Nc3ccccc3C)=C(C)NC3=C2C(=O)CCC3)cc(OC)c1OC` (stereo unspecified): 4.8%; for `O=C(Nc1ccccc1I)C1CC(=O)N(c2ccc(Br)cc2)C1` (stereo unspecified): -26%; for `O=C1NC(=O)/C(=C\c2ccc(Cl)cc2Cl)S1`: 5.5%.
To `COc1ccc(OC)c(C=NN2CCN(Cc3ccc(C)cc3C)CC2)c1` belongs 13%.
As for `CC(C)c1ccc(/C=N/n2cnnc2)cc1[N+](=O)[O-]`, the displacement stood at 11.1%.
As to `CCCCN1C(=O)/C(=C/C=C/c2ccccc2)SC1=S`, the displacement was -0.6%.
To `CCOc1cc(C(=S)N2CCOCC2)cc(Br)c1OC(=O)c1cccc2ccccc12` belongs -12.3%.
The same measure for `Cc1cc(C)n(C(=O)CNC(=O)c2ccccc2Cl)n1`: 8.3%.
For the compound `O=C1C2C3C=CC(C3=C(c3ccccc3)c3ccccc3)C2C(=O)N1c1cccc(C(F)(F)F)c1` (stereo unspecified), the displacement stood at 8.5%.
Turning to `CCOC(=O)CSc1nc(N)nc(C)c1Br`, the displacement was determined as 2.8%.
As to `Clc1ccc(SCCc2ccncc2)cc1Cl`, the displacement worked out at 1.9%.
With `Cc1ccc(S(=O)(=O)C(CC(=O)c2ccc(Cl)cc2)c2ccccc2)cc1` (stereo unspecified), the displacement amounted to 8%.
For the compound `O=c1/c(=C/c2ccc(-c3ccc(Cl)cc3)o2)sc2nc3ccccc3n12`, the displacement came to 10.9%.
To `COc1cc(C2C(C(=O)OCc3ccccc3)=C(C)NC3=C2C(=O)CCC3)cc(Br)c1O` (stereo unspecified) belongs 8.4%.
To `O=c1c2c3c(sc2[nH]c(=S)n1-c1ccccc1)CCC3` belongs -2.5%; to `NNC(=O)c1cc(C2CC2)nc2ccc(Br)cc12`, -4.7%.
Consider `O=C(NC(NC(=O)C(c1ccccc1)c1ccccc1)c1ccc(F)cc1)C(c1ccccc1)c1ccccc1`, for which the displacement amounted to 13.1%.
Regarding `COC(=O)c1ccccc1NC(=O)CN(c1ccc(OC)cc1)S(=O)(=O)c1ccc(C)cc1`, the displacement amounted to 5.6%.
In the case of `Cc1ccccc1NC(=O)c1c(NC(=O)c2cccs2)sc2c1CCCCC2`, the displacement amounted to 7.8%.
As to `C=CCSC1=C(C#N)C2(CCCCC2)C(C#N)C(=O)N1` (stereo unspecified), the displacement was 3.4%.
In the case of `C/C(=N/NC(=O)c1ccccc1)c1ccc(F)cc1`, the displacement is -13.5%.
Turning to `Cc1cc(NS(=O)(=O)c2ccc(Nc3nc(-c4cccs4)cs3)cc2)no1`, the displacement came out at 5.4%.
Consider `COc1cc(NC(=O)c2cccc(Cl)c2)ccc1NC(=O)c1cc2ccccc2o1`, for which the displacement stood at 16.4%.
Consider `O=C1/C(=C/c2ccc(Cl)cc2Cl)SC(=S)N1c1ccc(Br)cc1`, for which the displacement was 30.5%.
Turning to `O=C1C2ON(c3ccccc3)C(c3ccccc3)C2C(=O)N1Cc1ccccc1` (stereo unspecified), the displacement was found to be 5.9%.
In the case of `Cc1c(-c2ccc(Cl)cc2Cl)nc2ccccc2c1C(=O)NCc1ccc2c(c1)OCO2`, the displacement is 1.2%.
The same measure for `CC(C)(C)C1CCc2c(sc(NC(=O)c3ccncc3)c2C#N)C1` (stereo unspecified): -0.9%; for `COc1cc(/C=N/NC(N)=O)ccc1O`: -11%; for `CCCCOc1ccc(NC(=O)CSCC(=O)Nc2ccc3ccccc3c2)cc1`: 11.2%.
The same measure for `COc1ccc(/C=C2\C(=O)NC(=O)N(c3ccccc3)C2=O)c2ccccc12`: 17.5%.
`CCn1c(C(O)c2cc(OC)ccc2OC)nc2ccccc21` (stereo unspecified): the displacement was -2.2%.
In the case of `O=C(NN1C(=O)CSC1=S)c1ccccc1[N+](=O)[O-]`, the displacement was -7.3%.
To `Cc1ccc(C(=O)NC(NC(=S)Nc2ccccc2Cl)C(Cl)(Cl)Cl)cc1` (stereo unspecified) belongs -10.7%; to `O=C(N/N=C/c1ccccc1Cl)c1ccccn1`, -9.6%; to `COc1ccccc1N1CCN(S(C)(=O)=O)CC1`, -6.8%.
As for `O=C(/C=C/Nc1ccccc1NS(=O)(=O)Cc1ccccc1)c1ccc2c(c1)OCO2`, the displacement turned out to be 13.2%.
For the compound `O=C(O)CNC(=O)/C(=C\c1cccnc1)NC(=O)c1ccccc1`, the displacement was -7.5%.
To `CS(=O)(=O)N(Cc1ccc(C(=O)N2CCc3ccccc3C2)cc1)c1ccccc1` belongs -0.6%.
Consider `Cc1nnc(Nc2ccc3c(c2)ncn3-c2ccccc2)c2ccccc12`, for which the displacement was -1%.
The same measure for `c1ccc(-c2ccc(Oc3nc4ccccc4n4cnnc34)cc2)cc1`: 10.4%; for `COc1ccc(-c2nnc(OC)c3ccccc23)cc1`: -4.1%.
To `Cc1ccc(/C=C2\SC(=S)N(CC(C)C)C2=O)cc1` belongs 9.8%; to `COc1ccc(C(=O)N2CCN(C3CCC(c4ccccc4)CC3)CC2)cc1` (stereo unspecified), -21.7%; to `O=C(/C=C/c1ccc(F)cc1)Nc1cccc([N+](=O)[O-])c1`, 16.4%.
Turning to `CCOc1ccc(N(CC(=O)Nc2ccccc2Br)S(=O)(=O)c2ccc(SC)cc2)cc1`, the displacement turned out to be 1.7%.
Take `Cc1cc(C)c(NC(=O)C(C)Sc2ncn[nH]2)c(C)c1` (stereo unspecified): the displacement is -0.6%.
As to `COC(=O)c1c(C)oc2ccc(OC(=O)C(C)(C)C)cc12`, the displacement worked out at 12.6%.
